Measurements as given in a compilation of properties of binary mixtures (doi:10.1016/j.molliq.2014.07.002).
Some of these densities may be calculated back from excess volumes.

Assay: xn = mol fraction of the nth substance listed
Conditions: 101 kPa

CN1CCCC1=O + CCCC[n+]1ccn(C)c1.[Cl-]
x1 = 1
Conditions | mass density [kg/m3]
308.15 K | 1019
313.15 K | 1015

CN1CCCC1=O + CC[n+]1ccn(C)c1.COS(=O)(=O)[O-]
x1 = 1
Conditions | mass density [kg/m3]
298.15 K | 1026
303.15 K | 1024
308.15 K | 1019

CCCC[n+]1ccn(C)c1.[Cl-] + CN1CCCC1=O
mass density [kg/m3]
Conditions | 298.15 K | 303.15 K | 308.15 K | 313.15 K
x1 = 0.0138 | 1028 | 1028 | 1024 | 1019
x2 = 0 | 1075 | 1072 | 1069 | 1063
x2 = 0.01 | – | 1071 | 1068 | –
x2 = 0.0396 | 1073 | 1071 | – | –
x2 = 0.0814 | 1072 | 1070 | 1067 | 1061
x2 = 0.1986 | 1071 | 1069 | 1066 | 1060
x2 = 0.3683 | 1070 | – | – | –
x2 = 0.5125 | 1067 | – | 1062 | 1056
x2 = 0.6367 | – | 1060 | 1057 | –
x2 = 0.704 | 1058 | 1056 | – | 1048
x2 = 0.7466 | 1055 | – | 1049 | 1045
x2 = 0.8415 | 1047 | 1045 | – | –
x2 = 0.8939 | 1041 | 1039 | 1035 | 1031
x2 = 0.9254 | – | – | 1033 | 1028
x2 = 0.9721 | 1030 | 1029 | 1025 | 1021

CC[n+]1ccn(C)c1.COS(=O)(=O)[O-] + CN1CCCC1=O
mass density [kg/m3]
Conditions | 298.15 K | 303.15 K | 308.15 K | 313.15 K
x1 = 0.0115 | 1032 | 1031 | – | 1026
x2 = 0 | 1280 | 1276 | 1273 | 1269
x2 = 0.0419 | 1274 | 1271 | 1268 | 1264
x2 = 0.0861 | 1268 | 1265 | 1262 | –
x2 = 0.2085 | 1249 | 1246 | 1244 | 1241
x2 = 0.3825 | 1218 | – | 1214 | 1212
x2 = 0.5291 | 1189 | – | 1185 | 1182
x2 = 0.6518 | 1162 | 1160 | – | 1154
x2 = 0.718 | 1144 | 1143 | – | 1137
x2 = 0.757 | 1133 | 1132 | 1128 | 1125
x2 = 0.8502 | – | 1099 | 1096 | 1093
x2 = 0.8983 | 1079 | 1078 | 1075 | 1073
x2 = 0.9298 | 1064 | – | 1060 | 1059
x2 = 0.9743 | 1040 | 1040 | 1037 | 1035
